{
  "source": "paper PMC4242493",
  "note": "The list shows a part of the results. The list includes weakly bound sequences.",
  "data": [
    {"target": "MaxL homodimer (UniProt P61244)", "sequence (P61244 whole entry)": "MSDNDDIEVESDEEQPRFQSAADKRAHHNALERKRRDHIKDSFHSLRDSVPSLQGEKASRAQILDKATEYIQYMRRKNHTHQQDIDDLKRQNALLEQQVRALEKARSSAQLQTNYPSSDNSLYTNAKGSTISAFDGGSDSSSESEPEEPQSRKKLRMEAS", "experiment": "universal protein-binding microarray (PBM)", "conditions": "PBS-based mixture, 10 nM His-tagged protein dimer, 2% milk, 200 ng/uL BSA, 50 ng/uL salmon testes DNA, 0.02% TX-100; detection with Alexa 488 anti-His …; high values mean tight binding; most listed sequences are background and not binding sites; double strand, one strand shown", "values": [
      {"sequence": "CGGAGGAC", "binding signal (normalized occupancy)": 0.0712},
      {"sequence": "AGGGGCAA", "binding signal (normalized occupancy)": 0.0757},
      {"sequence": "GTCTGCTA", "binding signal (normalized occupancy)": 0.0705},
      {"sequence": "CAGCGCAA", "binding signal (normalized occupancy)": 0.0707},
      {"sequence": "AAGTCTGA", "binding signal (normalized occupancy)": 0.0731},
      {"sequence": "AATTAACG", "binding signal (normalized occupancy)": 0.0697},
      {"sequence": "AGATGGGG", "binding signal (normalized occupancy)": 0.0806},
      {"sequence": "GAGCACAA", "binding signal (normalized occupancy)": 0.0775},
      {"sequence": "GCTAACAC", "binding signal (normalized occupancy)": 0.0758},
      {"sequence": "GACCTCCC", "binding signal (normalized occupancy)": 0.0734},
      {"sequence": "CAGCGGTC", "binding signal (normalized occupancy)": 0.0711},
      {"sequence": "ATATTTAA", "binding signal (normalized occupancy)": 0.0836},
      {"sequence": "GAAACGCC", "binding signal (normalized occupancy)": 0.0758},
      {"sequence": "AGTTTCAA", "binding signal (normalized occupancy)": 0.0702},
      {"sequence": "AAAAAACA", "binding signal (normalized occupancy)": 0.0761},
      {"sequence": "AAAGATGT", "binding signal (normalized occupancy)": 0.0764},
      {"sequence": "AACCTATG", "binding signal (normalized occupancy)": 0.0754},
      {"sequence": "CCGGACAA", "binding signal (normalized occupancy)": 0.0738},
      {"sequence": "CCATAGGC", "binding signal (normalized occupancy)": 0.0737},
      {"sequence": "GTATGAAA", "binding signal (normalized occupancy)": 0.0778},
      {"sequence": "CACCATTA", "binding signal (normalized occupancy)": 0.0833},
      {"sequence": "AATAGGCG", "binding signal (normalized occupancy)": 0.0782},
      {"sequence": "AGCGATTC", "binding signal (normalized occupancy)": 0.0746},
      {"sequence": "AAGTTCGC", "binding signal (normalized occupancy)": 0.0678},
      {"sequence": "GCAAGTGA", "binding signal (normalized occupancy)": 0.0726},
      {"sequence": "CTGTTCCC", "binding signal (normalized occupancy)": 0.0723},
      {"sequence": "ACTGAGGG", "binding signal (normalized occupancy)": 0.0682},
      {"sequence": "CTAAACTA", "binding signal (normalized occupancy)": 0.0783},
      {"sequence": "CTAGACAC", "binding signal (normalized occupancy)": 0.0766},
      {"sequence": "AGGGTGAG", "binding signal (normalized occupancy)": 0.0746},
      {"sequence": "CATCGACA", "binding signal (normalized occupancy)": 0.0766},
      {"sequence": "CACGGCAA", "binding signal (normalized occupancy)": 0.0787},
      {"sequence": "CTGCACTC", "binding signal (normalized occupancy)": 0.0768},
      {"sequence": "CCTTGGCA", "binding signal (normalized occupancy)": 0.0761},
      {"sequence": "CAAGGTCC", "binding signal (normalized occupancy)": 0.0744},
      {"sequence": "TAATTTCA", "binding signal (normalized occupancy)": 0.0759},
      {"sequence": "CTACGGAA", "binding signal (normalized occupancy)": 0.0718},
      {"sequence": "ACCGCGAG", "binding signal (normalized occupancy)": 0.0729},
      {"sequence": "ATTGTAAC", "binding signal (normalized occupancy)": 0.0837},
      {"sequence": "GAGTCACA", "binding signal (normalized occupancy)": 0.0828},
      {"sequence": "CGAATTTC", "binding signal (normalized occupancy)": 0.0754},
      {"sequence": "GATATACC", "binding signal (normalized occupancy)": 0.0834},
      {"sequence": "AATAAATA", "binding signal (normalized occupancy)": 0.0736},
      {"sequence": "CTCAGTAC", "binding signal (normalized occupancy)": 0.0743},
      {"sequence": "CACGACTA", "binding signal (normalized occupancy)": 0.0775},
      {"sequence": "CACTAGGC", "binding signal (normalized occupancy)": 0.0738},
      {"sequence": "ACTGAAGC", "binding signal (normalized occupancy)": 0.0715},
      {"sequence": "AGTCGCCC", "binding signal (normalized occupancy)": 0.0692},
      {"sequence": "GGTGTCAC", "binding signal (normalized occupancy)": 0.0829},
      {"sequence": "CGGCAAAC", "binding signal (normalized occupancy)": 0.0699},
      {"sequence": "TATAATAA", "binding signal (normalized occupancy)": 0.0772},
      {"sequence": "ACGGGTGG", "binding signal (normalized occupancy)": 0.0818},
      {"sequence": "GCACTTCC", "binding signal (normalized occupancy)": 0.0736},
      {"sequence": "CCACAAGA", "binding signal (normalized occupancy)": 0.0769},
      {"sequence": "GCTGATAC", "binding signal (normalized occupancy)": 0.0767},
      {"sequence": "CCTTGACC", "binding signal (normalized occupancy)": 0.0715},
      {"sequence": "GCAATTCA", "binding signal (normalized occupancy)": 0.0722},
      {"sequence": "AGCGGAGG", "binding signal (normalized occupancy)": 0.0684},
      {"sequence": "ACCGCCGT", "binding signal (normalized occupancy)": 0.0684},
      {"sequence": "AACATTGG", "binding signal (normalized occupancy)": 0.0794},
      {"sequence": "GATCATGA", "binding signal (normalized occupancy)": 0.0863},
      {"sequence": "CATGTCGA", "binding signal (normalized occupancy)": 0.0903},
      {"sequence": "ACTCCCAT", "binding signal (normalized occupancy)": 0.0864},
      {"sequence": "AACTAGCT", "binding signal (normalized occupancy)": 0.0693},
      {"sequence": "ATGAATCC", "binding signal (normalized occupancy)": 0.0822},
      {"sequence": "ATGTTCTC", "binding signal (normalized occupancy)": 0.0739},
      {"sequence": "CGGGATAA", "binding signal (normalized occupancy)": 0.0773},
      {"sequence": "CCCGATTA", "binding signal (normalized occupancy)": 0.0768},
      {"sequence": "AGTGGTCA", "binding signal (normalized occupancy)": 0.0751},
      {"sequence": "CCGTTTCC", "binding signal (normalized occupancy)": 0.0708},
      {"sequence": "GCGCACGA", "binding signal (normalized occupancy)": 0.093},
      {"sequence": "CCCTAACG", "binding signal (normalized occupancy)": 0.0797},
      {"sequence": "AATAGTAC", "binding signal (normalized occupancy)": 0.072},
      {"sequence": "AAATGGGT", "binding signal (normalized occupancy)": 0.0763},
      {"sequence": "ACGGGGCC", "binding signal (normalized occupancy)": 0.0746},
      {"sequence": "ATGCGTGC", "binding signal (normalized occupancy)": 0.0969},
      {"sequence": "GGGACACA", "binding signal (normalized occupancy)": 0.0736},
      {"sequence": "ACCGTGAA", "binding signal (normalized occupancy)": 0.0721},
      {"sequence": "CCGATTAC", "binding signal (normalized occupancy)": 0.0729},
      {"sequence": "GCGGGTCA", "binding signal (normalized occupancy)": 0.0811},
      {"sequence": "AACCGCTA", "binding signal (normalized occupancy)": 0.0726},
      {"sequence": "ACAGGACT", "binding signal (normalized occupancy)": 0.0726},
      {"sequence": "ACTGCAAA", "binding signal (normalized occupancy)": 0.0709},
      {"sequence": "CATCTGAG", "binding signal (normalized occupancy)": 0.0821},
      {"sequence": "AGGGACGA", "binding signal (normalized occupancy)": 0.0704},
      {"sequence": "AAGAAGAA", "binding signal (normalized occupancy)": 0.07}
    ]}
  ]
}
